This is one part of the list.
system: T1, C. trachomatis L2/434/Bu expressing GFP (CTL2-GFP); parameters: species or system HeLa; C. trachomatis total inclusion area by high-content imaging, normalised to DMSO; details: total inclusion area; 28.5 h, 10 µM; inhibitor
T1 construct: L2/434/Bu GFP intracellular growth in HeLa cells
Summary of the method: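 High-content imaging followed the bulk GFP/resorufin measurement: fixed, Hoechst-stained cells were scored for GFP inclusions and host nuclei per well. Total inclusion area and count served as growth proxies, nuclei number as the viability proxy. MIC calculation matched the bulk assay.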

Compound | % of control remaining
CCNS(=O)(=O)c1ccc(CCC(=O)Nc2ccc3c(c2)OCCO3)cc1 [CBK268255] | 88.889
Cc1cc(-c2cc(=O)n(Cc3ccccc3F)nc2C2CC2)on1 [CBK284366] | 72.4474
O=C(NC[C@H]1CC[C@H](c2cc(C(=O)N3CCOCC3)c3ccccc3n2)CC1)C1CCCC1 [CBK285979] | 115.934
Cc1nc(SCC(=O)N2CCC(C)CC2)c2c3c(sc2n1)CCC3 [CBK265944] | 91.282
Cc1cc(-c2cc3nc(C)c(C)c(O)n3n2)c(C)o1 [CBK284500] | 101.066
COc1cc(OC)cc(C(=O)N2CCC3(CC2)CC(=O)c2cc(C)c(C)cc2O3)c1 [CBK164201] | 131.07
Cc1nc(C2CCCC2)cc([C@H]2CN3CC[C@H]2C[C@@H]3CNC(=O)c2ccco2)n1 [CBK289120] | 114.304
Cn1ccnc1SCC(=O)Nc1ccc(I)cc1 [CBK057541] | 59.9924
COc1ccccc1OCCOc1cccc(/C=N/n2cnnc2)c1 [CBK263288] | 26.5134
O=C(CSCc1nc(O)c2c3c(sc2n1)CCCC3)NC1CCCCC1 [CBK265684] | 115.437
CC(=O)Nc1ccc(C(=O)CSc2nc(-c3ccccc3)cs2)cc1 [CBK268038] | 107.733
COc1cc(CN2CCN(C(=O)c3ccccc3)CC2)cc(OC)c1O [CBK263462] | 85.6208
CCn1cc(C(=O)N2CCCCC2c2nc3ccccc3[nH]2)c(C)n1 (stereo not shown) [CBK283778] | 77.044
OCC1CCCN1c1cncc(-c2ccc3ccccc3c2)n1 (stereo not shown) [CBK037197] | 81.9064
COc1ccc(-n2cnc3ccccc3c2=O)cc1 [CBK288145] | 98.5063
N/C(=N\OC(=O)CCCc1ccccc1)c1ccc(Cl)cc1 [CBK264454] | 81.6318
CCn1cc(S(=O)(=O)Nc2cc(C)on2)cn1 [CBK270302] | 79.5057
O=C(c1cc[nH]n1)N1CCc2nc(-c3cccc(F)c3)sc2C1 [CBK281915] | 89.0821
CS(=O)(=O)N(Cc1ccc(Cl)cc1)c1ccc(C(=O)N2CCC(C(N)=O)CC2)cc1 [CBK265327] | 101.05
O=C(O)c1ccc(NC(=O)c2cn(-c3ccccc3)nc2-c2cc3ccccc3oc2=O)cc1 [CBK266432] | 116.06
COc1ccc(-n2ncc3c2CCCN(C(=O)C2CCCC2)C3)cc1 [CBK284501] | 39.0724
COc1ccc(C2=NNC(=O)C(c3ccc(OC)cc3)C2)cc1 (stereo not shown) [CBK287908] | 123.264
